The other results are listed elsewhere or left out.

44 sequences from the supplement of paper PMC11417369 can be followed below.

This experiment deals with PfSIP2 AP2 domain 1 (GST-tagged). Put plainly: gcPBM binding intensity (ln(normalized median fluorescence intensity)); higher = stronger DNA binding. Summed up: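 GST-tagged P. falciparum DNA-binding domains, expressed in E. coli (about 25 μg on average), were applied for 1 h to an Agilent 4 × 180k array of primer-extended double-stranded 36-bp intergenic genomic probes plus negative controls. The binding buffer was 1× PBS with 1% milk, 0.2 mg/ml BSA, 0.5% salmon testes DNA and 0.03% Triton X-100. Bound protein was detected with Alexa488 anti-GST antibody and scanned at 488 nm. Binding intensity is the highest Masliner-normalised natural-log median intensity across replicate spots of either probe orientation.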
As for “TATTATATCTTTATTATTCATCTAAAATTTGTATTT [TGCATGCA_negctrl_site233]”, the “gcPBM binding intensity (ln)” value is 6.67.
The same measure for “ACATTATATCTAAGTACACACATTAATTTTTTTTTT [CACACA_site7850]”: 7.42.
The same measure for “CTATAACCTCTGTTCACACATATATCATAATTTACA [CACACA_site5446]”: 7.17; for “TTTATTTTGATTTAATGTACAAATAGTAAAACAAAA [XGTACX_site4789]”: 7.21; for “TATTTAAAAGCATATACACACAACTGGAATGAAAAG [CACACA_site6128]”: 7.42.
The same measure for “TTTTTTTAAACTGAAAGTACTTATTCCAAGAAAATA [XGTACX_site50]”: 6.93.
For the sequence “ATATATATATCAACAACACACGATTAACTAAAAAAA [CACACA_site302]”, the “gcPBM binding intensity (ln)” value was 8.1.
The figure for “ATAATGACTAAATTTAAACACACAAGGGGAGTTTAC [CACACA_site8209]” is 6.75; for “GCATAAGAAATAAATAGTACACACATAGACACACAC [XGTACX_site3095]” it is 8.19; for “TATATATATATATACACACACATATATATATATATA [CACACA_site1346]” it is 9.26.
The same measure for “ATAAGATATGTATATACACACATTTATTTACATATA [CACACA_site3263]”: 6.95; for “AAAACAAATGAGTACACACACATAAAAGTTGAAAAT [CACACA_site6238]”: 6.98.
The same measure for “CGCACAAAAATATACACACACACATCTATATTTATT [CACACA_site7675]”: 7.22; for TACCCATATTAATATGTGCGCATATAAAAGTCAAAC: 8.01; for “ATTTTTTTTATTTTTTCAATATATATATATATATAT [CACACA_negctrl_site1444]”: 9.48.
Consider “GAAATAGAAATAAAATAGGCATACAATAGAACTAAG [TGCATGCA_negctrl_site537]”, for which the “gcPBM binding intensity (ln)” value came to 6.94.
As to “TTATATATATATAATACACACATAATAATATATTTA [CACACA_site3038]”, the “gcPBM binding intensity (ln)” value is 7.09.
The same measure for “ATATATGAGCAAAAATATATAAGATAACACATAAAT [CACACA_negctrl_site167]”: 7.04; for “TTATATATATATTATAGTACATATATAATATAGTAA [XGTACX_site6869]”: 6.94.
“TCTCTATAAATAAATACATGCATATAATAAAGAATT [TGCATGCA_site710]”: the “gcPBM binding intensity (ln)” value was determined as 6.92.
The figure for “TATTTAAAAATATATACACACATTTTATATTATTAT [CACACA_site781]” is 6.88.
The figure for “CCTTATTATTATTTTACACACGTCCTAATAAGAGGA [CACACA_site1319]” is 7.2; for “AAAAACAAAAAAGAAGCACACATATATATATATATA [CACACA_site8779]” it is 9.66.
The same measure for “AATATATAAATAAATACACACATAAAATAGAAATAT [CACACA_site1663]”: 7.25; for “TTTATCTGATATATTACACACAAAAAAAAAAAAAAA [CACACA_site7637]”: 6.98.
In the case of “AATATTATATATATGGGTACTAATTCCTTTAATTTC [XGTACX_site102]”, the “gcPBM binding intensity (ln)” value is 6.72.
The figure for “TATTTTACAAAATAAGGTACGTAAATATATGGTAGG [XGTACX_site2133]” is 7.43; for “AAATATCTTTTATATTGTACATATTCCTTATGTGGA [XGTACX_site7638]” it is 6.94.
The same measure for “TAATAAATAAAATATGCACACAAATATAGGAAACAA [CACACA_site8820]”: 9.17; for “ATATATATATATATATGTACATAATAATATATATTA [XGTACX_site111]”: 9.6.
For “TAAAAGGTGTATATAATACACACGTGGGATTAGAAT [CACACA_site610]”, the “gcPBM binding intensity (ln)” value was 6.97.
The figure for “AAAAAATATACATATACACACATATGTATATAGAAT [CACACA_site2170]” is 6.93; for “TATATAAAGCATTGTAGTACTACCAATATTTTTTTT [XGTACX_site3523]” it is 7.09; for “AAAATAAACAATGAACAATAAACAATGAACAATGAA [CACACA_negctrl_site1194]” it is 6.91.
For the sequence “AAAATATTATAAATTTGTACTTATAAATATTGTATA [XGTACX_site8165]”, the “gcPBM binding intensity (ln)” value worked out at 6.88.
The same measure for “ATATGTTATATGTAATGTACTTTTGATGTATATATT [XGTACX_site8615]”: 7.05; for “CGTTATATATATAAAAGTACAAAAATTAAACATTCC [XGTACX_site4568]”: 7; for “ATATGTAAATAAATATGTACTCATTTATTATTTTAT [XGTACX_site8748]”: 7.06.
Turning to “ATATGTATATTTTTTTGTACGTATTTATGTGTGTGT [XGTACX_site2093]”, the “gcPBM binding intensity (ln)” value amounted to 7.5.
For the sequence “ATATATACAAGTATTTTTTTTTCAAACATTATTTTT [CACACA_negctrl_site1808]”, the “gcPBM binding intensity (ln)” value worked out at 7.09.
The figure for “ATATATATAATATAATGTACGTATAATAATATGAGA [XGTACX_site2282]” is 7.71.
The figure for “TAATTCGCAAAAGAAAGAAATTAAGAAAAAGAAAAA [XGTACX_negctrl_site614]” is 6.62; for “TTCAATAGTAAGTATACACACATATATATATATAAA [CACACA_site2687]” it is 7.17.
The figure for “TTTCTTTTTTTTTTTTCATTGATCCATTTATGATTA [TGCATGCA_negctrl_site225]” is 6.76.
